# Measured values as given in PMC4336329 (PLoS ONE, 2015).
# Screen size: about 310,000 compounds; about 14,000 (4.5%) showed an effect of 50% or more. The effect is printed as a negative number. The list shows a part of the results.
# Biological target: human ether-à-go-go-related gene (hERG) potassium channel (human, UniProt Q12809)
# Experiment: primary screen, population patch clamp on CHO cells stably expressing hERG
# 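Also: peak tail current of the secondary pulse compared with the same well before compound.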
# Sequence of human ether-à-go-go-related gene (hERG) potassium channel (Q12809 whole entry, looked up): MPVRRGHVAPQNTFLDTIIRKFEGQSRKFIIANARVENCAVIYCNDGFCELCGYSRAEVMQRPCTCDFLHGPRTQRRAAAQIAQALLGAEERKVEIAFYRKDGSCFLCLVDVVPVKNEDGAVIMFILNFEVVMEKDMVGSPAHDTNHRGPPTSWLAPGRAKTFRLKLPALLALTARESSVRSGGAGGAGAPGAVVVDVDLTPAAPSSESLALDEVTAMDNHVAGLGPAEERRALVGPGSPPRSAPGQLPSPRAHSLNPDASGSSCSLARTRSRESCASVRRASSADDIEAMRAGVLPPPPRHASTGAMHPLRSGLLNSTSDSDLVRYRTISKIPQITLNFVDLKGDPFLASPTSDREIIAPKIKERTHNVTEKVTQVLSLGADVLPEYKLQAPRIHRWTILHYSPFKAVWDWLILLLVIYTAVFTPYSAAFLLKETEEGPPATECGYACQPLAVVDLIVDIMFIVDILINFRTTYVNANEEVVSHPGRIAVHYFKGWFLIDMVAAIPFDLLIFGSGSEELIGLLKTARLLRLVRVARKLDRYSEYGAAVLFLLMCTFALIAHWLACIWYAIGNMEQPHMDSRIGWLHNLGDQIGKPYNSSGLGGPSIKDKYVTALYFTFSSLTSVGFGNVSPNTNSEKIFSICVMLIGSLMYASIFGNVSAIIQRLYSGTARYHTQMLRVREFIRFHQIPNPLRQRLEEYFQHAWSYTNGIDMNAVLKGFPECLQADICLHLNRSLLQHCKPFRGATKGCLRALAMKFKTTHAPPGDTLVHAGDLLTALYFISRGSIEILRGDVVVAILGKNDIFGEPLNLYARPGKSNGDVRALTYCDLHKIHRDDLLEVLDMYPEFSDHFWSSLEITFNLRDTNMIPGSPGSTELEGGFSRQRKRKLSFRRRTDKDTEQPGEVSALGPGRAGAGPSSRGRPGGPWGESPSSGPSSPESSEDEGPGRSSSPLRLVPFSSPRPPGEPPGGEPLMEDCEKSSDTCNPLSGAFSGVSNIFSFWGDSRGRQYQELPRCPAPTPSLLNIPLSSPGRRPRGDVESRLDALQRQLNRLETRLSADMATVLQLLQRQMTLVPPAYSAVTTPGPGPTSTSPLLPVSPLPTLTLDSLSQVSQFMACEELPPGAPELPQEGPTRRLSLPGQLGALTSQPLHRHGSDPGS
row,SMILES,"hERG current change (%, negative = inhibition) at 10uM"
1,Cc1cccc(C(=O)NC2CC3CCCC(C2)N3Cc2ccccc2)c1 (stereo not drawn),-40.9%
2,Cl.O=C(Nc1nc2ccccc2s1)c1ccc2c(c1)OCO2,-13.3%
3,CCc1nc(NCc2ccco2)c2oc3ccccc3c2n1.Cl,-19.6%
4,NC(=O)c1ccc(CN2CCC(Cc3ccccc3)CC2)cc1,-57.1%
5,Cc1cc(C)c(C)c(S(=O)(=O)NCc2ccc(C(=O)N3CCOCC3)cc2)c1C,-4.97%
6,O=C1c2ccccc2CCCC12N=NCC2c1cccc2ccccc12 (stereo not drawn),9.74%
7,CCCCN(Cc1cc2ccccc2[nH]c1=O)S(=O)(=O)c1ccc(C)cc1,-5.71%
8,Cc1ccc2nc(C)cc(C(=O)OCC(=O)c3ccc(Cl)c([N+](=O)[O-])c3)c2c1,4.6%
9,CCOC(=O)c1sc(=S)n(-c2ccccc2)c1C,9.67%
10,CCN(CC)S(=O)(=O)c1ccc(C(=O)OCC(=O)Nc2ccc(-c3nc4ccc(C)cc4s3)cc2)cc1,-1.97%
11,CS(=O)(=O)N(CC(=O)N1CCOCC1)Cc1ccc(Cl)cc1,4.67%
12,Clc1ccc(C[n+]2c(-c3ccccc3)cc(-c3ccccc3)cc2-c2ccccc2)cc1.[O-][Cl+3]([O-])([O-])[O-],-79.5%
13,Cn1c(SCc2nc3ccccc3[nH]2)nnc1-c1cccnc1,10.3%
14,O=C(COc1ccc(Br)cc1Br)NN1C(=O)c2ccccc2C1=O,-11.9%
15,O=C(C1CCCN1S(=O)(=O)c1ccc(Cl)c(Cl)c1)N1CCCCC1 (stereo not drawn),1.18%
16,CCOc1ccc(NC(=O)CSc2nnc(-c3ccccn3)n2C)cc1,-13.5%
17,CC(/C=N/NC(=O)c1ccc2nc(C)[nH]c2c1)=C\c1ccccc1,-9.33%
18,Cc1ccccc1S(=O)(=O)Cc1ccc(C(=O)NCCc2ccccc2)o1,-30.6%
19,O=C1Nc2ccccc2/C1=C/c1ccnc2ccccc12,-11.5%
20,CCOC(=O)C1CCN(CC(=O)Nc2c(C(=O)OC)[nH]c3ccc(Cl)cc23)CC1,-15%
21,CCOc1ccc(OCCC(=O)OCC(=O)Nc2ccc3c(c2)OCCO3)cc1,-5.02%
22,COc1ccccc1CCN=C(N)NS(=O)(=O)c1cc(F)ccc1F,-3.69%
23,Cc1cc(Nc2ccccc2)nc(-c2ccccc2O)n1,3.21%

row,SMILES,"hERG current change (%, negative = inhibition) at 10uM"
1,COC(=O)c1c(NC(=O)CC2NCCNC2=O)sc2c1CCCC2 (stereo not drawn),2.63%
2,Cc1ccc(N(CC(=O)NC2CCCC2)C(=O)Cn2nnc(-c3ccccc3F)n2)cc1,-50%
3,COCCCNC(=S)NC1CC2CCCC(C1)N2Cc1ccco1 (stereo not drawn),-18.8%
4,O=C(CSCc1c(Cl)cccc1Cl)N1CCOCC1,0.183%
5,O=[N+]([O-])c1cc(-c2ccc(C(=S)N3CCOCC3)o2)ccc1Cl,11.9%
6,O=C(CSc1nc2c(c(=O)n1-c1ccc(Cl)cc1)SCC2)N1CCOCC1,-14.2%
7,CCOC(=O)N1CCN(CC(=O)n2c(C)c(C)c3ccccc32)CC1.O=C(O)C(=O)O,-13%
8,Cc1ccc(NC(=O)CN2C(=O)NC3(CCCC3)C2=O)cc1S(=O)(=O)N1CCCCC1,-15.6%
9,COc1cc(C(=O)Nc2nc3ccccc3s2)ccc1OCc1c(C)noc1C,3.33%
10,CNC(=O)NNC(=O)c1csc(-c2ccc(C(F)(F)F)cc2Cl)n1,5.24%
11,CCC1=NN2C(=N)/C(=C\c3cccn3-c3ccc(C)c(C)c3)C(=O)N=C2S1,-6.32%
12,C/C(Cc1ccccc1)=N\NC(=O)c1ccccn1,22.5%
13,Cc1ccc(S(=O)(=O)N2CCOC2CNC(=O)C(=O)NCc2cccnc2)cc1 (stereo not drawn),14.4%
14,C/C(CC(=O)Nc1c(C)cc(C)cc1C)=N\NC(=O)OC(C)(C)C,3.35%
15,CC(OC(=O)C1CC1C)C(=O)Nc1ncc(Cl)cc1Cl (stereo not drawn),8.13%
16,O=C(Cn1c2c(c(-c3ccccc3Cl)cc1=O)CCC2)NCC1CCCO1 (stereo not drawn),-2.33%
17,COCC(C)NC(=O)Cc1ccc(Cl)cc1 (stereo not drawn),18.7%
18,CNC(=S)N1CCN(c2nc(-c3ccc(Cl)cc3)cs2)CC1,14.7%
19,Cc1ccc(NS(=O)(=O)c2ccc3c(c2)NC(=O)CO3)cc1,7.97%
20,c1cncc(-c2nc3ccccc3[nH]2)c1,11.3%
21,CCN(CC)c1ccc(/C=C(/C#N)C(=O)NC(C)C)o1,-1.68%
22,Cc1ccc(S(=O)(=O)NNC(=S)NC(=O)c2ccc([N+](=O)[O-])cc2)cc1,-3.16%
23,CC(C)NC(=S)N/N=C/c1ccc2c(c1)OCCO2,-37.6%

row,SMILES,"hERG current change (%, negative = inhibition) at 10uM"
1,COc1ccc(C(=O)/C=C/c2ccccc2)c(O)c1,6.19%
2,CC(C)Cn1c(SCC(=O)N2CCCCC2)nc2ccccc2c1=O,-24.7%
3,O=C(CSc1nnc2c(n1)[nH]c1ccccc12)Nc1ccc(N2CCOCC2)cc1,11.7%
4,CCOC(=O)C(=CNc1cccc(N)n1)C(=O)OCC,-4.14%
5,N#CCN1CCN(CC(=O)Nc2ccc(OCc3ccccc3)cc2)CC1,-4.27%
6,COc1cc([N+](=O)[O-])ccc1NC(=S)NCc1ccccn1,1.11%
7,Cc1c(NC(=O)C(C)OC(=O)c2ccc(Br)o2)c(=O)n(-c2ccccc2)n1C (stereo not drawn),12.3%
8,Cc1cc(NS(=O)(=O)c2ccc(NC(=O)Nc3ccc4c(c3)OCO4)cc2)no1,7.65%
9,CCOc1ccccc1CNS(=O)(=O)c1csc(C(N)=O)c1,5.08%
10,Cc1ccc(C(=O)N/N=C2\CC3CC=CC23)c(C)c1 (stereo not drawn),-5.04%
11,COc1ccccc1OC(=O)CCc1nc2ccccc2s1,15.9%
12,COc1cccc(CNC(=O)CCC2CCCN(C3CCOCC3)C2)c1 (stereo not drawn),-0.768%
13,CCOC(=O)C1CCCN(c2nc3ccccc3nc2NS(=O)(=O)c2ccc(C)cc2)C1 (stereo not drawn),-44.8%
14,CC(C)(C)S(=O)(=O)/C(C#N)=N/Nc1ccc(S(C)(=O)=O)cc1,23.4%
15,CCc1ccc(OCC(=O)N(C)CCC#N)c(Br)c1,-4.95%
16,O=C(O)CCCCCNC(=O)C(=O)C1C(=O)Nc2ccccc21 (stereo not drawn),15%
17,CCOc1ccc(CCNC(=O)COC(=O)Cc2ccc(F)cc2)cc1OCC,-26.6%
18,Cc1cccc(OCCc2c(C)[nH]c(=S)[nH]c2=O)c1,12.8%
19,COc1ccc(/C=C2\SC(=S)N(NS(=O)(=O)c3ccc(C)cc3)C2=O)c(OC)c1,-24.6%
20,Cc1ccc(C)c(-c2[nH]ncc2CN2CCCC(CO)(Cc3ccccc3C)C2)c1 (stereo not drawn),-47.8%
21,Cc1ccc(C(=O)NNC(=O)CSc2nnc(-c3ccncc3)n2C)cc1,24.9%
22,NC(=O)CSc1c[nH]c2ccccc12,-6.82%
23,CCN(CC)S(=O)(=O)c1ccc(/C=C/C(=O)OCC(=O)Nc2cccnc2Cl)cc1,-34.1%

row,SMILES,"hERG current change (%, negative = inhibition) at 10uM"
1,CCOC(=O)C(=O)Nc1ccccc1C(=O)OC,10.7%
2,CC(C)C(=O)N1CCN(c2ccccc2NC(=S)NC(=O)Cc2ccccc2)CC1,-4.92%
3,Cc1sc2nc(SCC(=O)N3CCCCC3)[nH]c(=O)c2c1C,1.97%
4,NC(=O)CN1CCN(C(=O)Nc2ccccc2)CC1,-6.24%
5,Cc1ccccc1-n1nc(SCC(=O)O)sc1=S,23.5%
6,CCN(CC(=O)Nc1c(F)cccc1F)C(=O)Cc1n[nH]c(=O)c2ccccc12,16.1%
7,CC(=O)Nc1ccc(C#Cc2ccc(NC(C)=O)cc2)cc1,8.37%
8,CC(=O)N1CC(=O)Nc2ccc(C)cc2C1c1ccccc1 (stereo not drawn),14.7%
9,N#Cc1c(N)nc2c(c1-c1ccncc1)CCCCCC2,-1.86%
10,Cc1nc2ccccn2c(=O)c1NC(=O)c1cccc2ccccc12,-6.3%
11,CCN1C(=O)C(C)S/C1=N\S(=O)(=O)c1ccc(F)cc1 (stereo not drawn),-5.64%
12,Cc1ccc2c(c1)N(CC(=O)NCCCN1CCCC1)C(=O)CO2,14.5%
13,CC1(C)C(=O)OC(c2c(F)c(F)c(F)c(F)c2F)C2(CCCCC2)C1=O (stereo not drawn),11.2%
14,CCc1nc(SCC(=O)Nc2cccc3ccccc23)[nH]c(=O)c1C,8.16%
15,CC1CCC(NC(=O)CCS(=O)(=O)c2ccc3c(c2)NC(=O)CS3)CC1 (stereo not drawn),-5.69%
16,CCOC(=O)c1cnc(-n2nc(C)cc2C)nc1NC1CCCCC1,-9.72%
17,COc1ccccc1Nc1ncnc2c1c(C)c(C)n2CCO,12.3%
18,COc1cc(NC(=O)c2cccs2)c(C(=O)OCC(=O)NC(C)c2ccccc2)cc1OC (stereo not drawn),6.62%
19,CN(CCCNC(=O)COc1cc(=O)n(C)c2ccccc12)Cc1ccccc1,-18.1%
20,Cc1cc(C(=O)CSc2nc(N)cc(=O)[nH]2)c(C)n1CCc1ccc(Cl)cc1,21.4%
21,Cc1ccc2c(c1)N(C(=O)CCC(=O)N1CCN(c3ccccn3)CC1)CC(C)O2 (stereo not drawn),-46.1%
